The DeepSol protein solubility set

Assay: soluble on expression in E. coli; label from the status in PepcDB or PDB records

Sequence	soluble on expression in E. coli
GASCDSFNEDLPECRLSVKFKYDYNMEFADAFHAQVDKVELYVFDKNGKYLFKQAEEGSALSTGNYLMEVELPVGQYQFMAWAGARDSYDITSLTPGVSTLTDLKLKLKREASLIINKRMETLWYGEVINVNFDGTVHQTETINLIRDTKIVRFGFQSYTGSWTLDMNDYDYEIIESNGHLGHDNSLLDDDVLSFRPYYMEQKDPATAYVDMNTMRLMEDRKTRLVLTEKASGKRVFDINLIDYLAMTNAEGKNLSTQEYLDRQSNYHIIFFLSESWLAVQIVVNGWVHRIQEENQ	soluble
MSLTNLDFHIVKRIRQRIAQGGDNAALKHKQNGQWQAINWHQFGEQLDELSMALLAQGIGVQDKIAIFSNNMPRWTIADFAALQIRAVTVPIYPTNTPEQAAYILQNADVKVVFVGEQAQFDAALSQFEQCPELRLIVAMNANIDLKQASCAMHWDEFVAQSHHQDRAPLDALIEQANYDDLFTLIYTSGTTGTPKGVMLDYRNIGAQLEGHDQRLNLTQEDVSLCFLPLSHVFERAWTAYVLYKGATNCYLQDVAHVREALAEVRPTVMCAVPRFYEKIFSAIHEKVVKAPLVRKVLFTWAVNMGAKMAVCRQQQRQPSWMLKQSHQFADKLVLSKLRALLGGRINFMPCGGAKLDETIGRFFHAIGINVKLGYGMTETTATVSCWDDHCFNPDSIGLSMPGAQVKIGENNEILVRGPMVMRGYYKLDKETTESFDEQGFLKTGDAGHIDENGNLFITDRIKELMKTSGGKYIAPQVIEGAIGKDHFIEQIAVIADTRKFVSALIVPCFDSLEEYAKELNIKYHDRLELIKHSQVLEMFEKRVNELQKELAKFEQVKKFRLLPKAFSMDSGELTPTQKLRRKVINDRYQDEIEEMYQDSPKKEGHHHHHH	not soluble
